Experimental data as given in PMC7002685, “Inhibition of vascular calcification by inositol phosphates derivatized with ethylene glycol oligomers” (Nature Communications, 2020).

Test system: vascular calcification
Experiment: Vitamin D3 (s.c.) + high-phosphate diet rat model of VC
Format: in vivo
Conditions: 30 mg/kg s.c. twice daily
Procedure: Male Sprague-Dawley rats were housed two per cage with free access to water and standard chow and submitted to a 12-h light/dark cycle. Compounds were administered and doses calculated using the salt form. […] Sham groups were injected with 0.9% NaCl instead of vitamin D3. […] Blood samples of 500 µL were collected on day 8 by fine needle from the tail vein and at sacrifice on day 12. […] Serum creatinine, calcium, and phosphorus were measured using standard colorimetric biochemistry analysis (Cobas Mira). Calcium tissue content was measured from dried carotids, whole left kidneys, and abdominal aortas by ICP-MS analysis. […] Images of the rat aortic trees were acquired on a Canon 5D MARKIII (Canon, Tokio, Japan) equipped with a 50 mm lens.
Calcium tissues’ contents were measured at the Central Environmental Laboratory (EPFL, Lausanne, Switzerland). Dry tissues (90 °C, overnight) were weighed and digested by aqua regia overnight at RT, followed by 2 h reflux, after which the solvent was completely evaporated with a steady flow of nitrogen gas. The dried samples were then reconstituted and homogenized with nitric acid. Calcium standards and samples were diluted with nitric acid. Absorbance was recorded using ICP-OES (Shimadzu ICPE-9000, Shimadzu). Two technical replicates were measured for each sample. Standard solutions were also included with the experimental samples for each set of measurements. Tissue concentrations of calcium were expressed as mg/g of dry tissue.

COCCOCCO[C@@H]1[C@@H](OP(=O)(O)O)[C@H](OCCOCCOC)[C@@H](OP(=O)(O)O)[C@@H](OP(=O)(O)O)[C@H]1OP(=O)(O)O [(OEG2)2-IP4, 4,6-Di-O-(methoxy-diethyleneglycol)-myo-inositol-1,2,3,5-tetrakis(phosphate)]
plasma calcium and phosphate levels: not impacted
plasma creatinine: 39.8 ± 6.6 µM
renal calcium content: reduction of renal calcium content
Change in body weight (n = 11): -38 ± 7 g
Final body weight (n = 11): 232 ± 12 g
Phosphate (n = 11): 2.61 ± 0.34 mM
Total calcium (n = 11): 3.28 ± 0.15 mM
